Results reported in PubChem BioAssay AID485364 (National Center for Advancing Translational Sciences (NCATS), 2010).
Hit rate of the full screen: of about 360,000 compounds, about 11,000 (3.1%) were called active. This list was built around the results that the source calls inconclusive (neither active nor inactive); the mix of calls is not that of the screen. Calls follow the shape of the dose curve; as a rule, active = well fitted inhibition curve with a large enough effect; inconclusive = small, poorly fitted or top-dose-only effect; inactive = no such curve, though single readings can be large or run the other way. No potency is given beside an inconclusive call; the fits are too rough.

Target: Schistosoma mansoni thioredoxin glutathione reductase (TGR) (UniProt Q962Y6)
Assay: qHTS Assay for the Inhibitors of Schistosoma Mansoni Peroxiredoxins; also: nearly all actives have a fitted effect of over 60% in size
Details: purified TGR, DTNB reduction, TNB absorbance 405 nm; series mostly up to 114 µM
Method in brief: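 Kinetic colorimetric format: TGR-catalysed, NADPH-driven DTNB reduction monitored via TNB absorbance. Enzyme dispensed at 20 nM; compound exposure 15 min at room temperature before reaction start.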
Potency is read from the fitted curve at half-maximal effect; tags tell the direction and shape of the fitted curve.

Compound | Potency
CC(C)Cn1c(N)c(C(=O)COC(=O)c2c(O)c(Cl)cc(Cl)c2Cl)c(=O)n(C)c1=O | inconclusive [inhibitor, partial curve]
CCOC(=O)C(NS(=O)(=O)c1ccccc1)(C(F)(F)F)P(=O)(OCC(C)C)OCC(C)C (stereo not drawn) | active: 17.8 µM
Cc1ccc2nc(N3C(=O)C(O)=C(C(=O)c4ccc(C)o4)C3c3ccco3)sc2c1 (stereo not drawn) | inconclusive [inhibitor, partial curve]
CCOC(=O)c1c(NC(=O)COc2cccc(C(F)(F)F)c2)sc2c1CCCCC2 | inactive
C=C(C)c1cccc(C(C)(C)NC(=O)N2CC(C)OC(C)C2)c1 (stereo not drawn) | inconclusive [inhibitor, partial curve]
O=C(CCNc1ccc(Cc2ccncc2)cc1)c1cccc([N+](=O)[O-])c1 | inactive
COc1ccc(C(CCN2CCCCC2)c2c(O)cc(OC)cc2OC)cc1 (stereo not drawn) | active: 39.8 µM
O=C1c2cccc3c([N+](=O)[O-])ccc(c23)C(=O)N1c1ccc(Cl)cn1 | active: 14.1 µM
Cc1cc(C(=O)COc2ccc([N+](=O)[O-])cc2)c(C)n1C1CC1 | inconclusive [inhibitor, partial curve]
CCC(Br)C(=O)Nc1ccc(OC)cc1 (stereo not drawn) | inconclusive [inhibitor, partial curve]
CN(C)C(=O)COc1ccc(C(=O)/C=C/c2cccnc2)cc1 | inconclusive [inhibitor, partial curve]
COC(=O)c1ccc(N2C(=O)CC(SCCN)C2=O)cc1 (stereo not drawn) | inconclusive [inhibitor, partial curve]
COc1ccc(OC)c(CC(=O)Nc2ccc3c(c2)CCC3)c1 | inactive
Cc1ccc(Oc2ccc(NC(=O)Cn3ccsc3=N)cc2)cc1 | inactive
O=C(Nc1cccc(F)c1)c1ccc(-c2ccccc2C(F)(F)F)o1 | inconclusive [inhibitor, partial curve]
O=C(CSc1nnc(-c2cnccn2)n1Cc1ccco1)c1ccc2ccccc2c1 | active: 25.1 µM
Cc1ccc(-c2nnc3ccccc3c2C(=O)Nc2cccc(Cl)c2)cc1 | inactive
Nc1ccc(-c2nc3ncccc3o2)c(O)c1 | inactive
COc1ccc(C(=O)O/N=C(/C(N)=O)P(=O)(OC(C)C)OC(C)C)cc1 | inconclusive [inhibitor, partial curve]
O=C(c1ccccc1)[C@@H]1[C@@H]2C(=O)N(c3ccc(F)cc3)C(=O)[C@@H]2C2CCCN21 (stereo partly drawn) | inconclusive [inhibitor, single point]
O=C(Nc1ccc(C(=O)N2CCC(N3CCCC3)CC2)cc1)c1ccc(Br)o1 | active: 25.1 µM
NC(=O)CSc1nnc(-c2cccc(S(=O)(=O)N3CCOCC3)c2)n1C1CCCCCC1 | inactive
CCSc1ncc(Cl)c(C(=O)Nc2ccc(S(N)(=O)=O)cc2)n1 | inactive
O=C(/C=C/c1ccc(O)c(O)c1)c1ccccc1O | inconclusive [inhibitor, partial curve]

Compound | Potency
Brc1ccccc1C1N=C(c2ccccc2)NO1 (stereo not drawn) | inconclusive [inhibitor, partial curve]
Cc1cc(Oc2ccc(N)cn2)cc(C)c1Cl | active: 39.8 µM
CCN(CC)c1ccc(C(=O)c2ccccc2C(=O)O)c(O)c1 | inactive
CCOC(=O)C(=O)Nc1c(C(=O)Nc2cccc(F)c2)oc2ccccc12 | inactive
CC1=CC(C)(C)N(C(=O)CCl)c2cc(C)ccc21 | inconclusive [inhibitor, partial curve]
Cc1ccc(Cl)cc1N1CCN(C(=O)c2cccn2-c2nnc(N3CCCC3)s2)CC1 | inconclusive [inhibitor, partial curve]
O=C1CC(c2ccccc2)CC(O)=C1C=NCCN1CCOCC1 (stereo not drawn) | inconclusive [inhibitor, partial curve]
Cc1oc(-c2cccc(F)c2)nc1CN1CCCN(C(=O)c2ccco2)CC1 | inconclusive [inhibitor, full curve, poor fit]
COc1cc(/C=N/Nc2ccc(C)cc2)cc(Br)c1O | active: 10 µM
O=C(Nc1ccc(-c2nc3cccnc3s2)cc1)c1ccco1 | inconclusive [inhibitor, partial curve]
CC1Sc2ccc(S(=O)(=O)CCC(=O)N(C)Cc3ccco3)cc2NC1=O (stereo not drawn) | inconclusive [inhibitor, partial curve]
COc1cc(-c2nnn(CC(=O)NC3CCS(=O)(=O)C3)n2)ccc1OCc1ccccc1 (stereo not drawn) | inconclusive [inhibitor, single point]
O=C(COC(=O)c1ccc(Cl)c(S(=O)(=O)N2CCCC2)c1)NC1CCCC1 | inconclusive [inhibitor, single point]
CCN1C(=O)C(=Cc2cccc(OC)c2Oc2ccc([N+](=O)[O-])cc2[N+](=O)[O-])SC1=S | inactive
O=C(Nc1ccc(OC(=O)c2cccs2)cc1)c1ccco1 | inactive
CC(C)Oc1ccc(/C=C(\NC(=O)/C=C/c2ccco2)C(=O)NCCc2nc3ccccc3[nH]2)cc1 | inconclusive [inhibitor, full curve]
OC(c1ccccc1)(c1ccccc1)C1CCCN1 (stereo not drawn) | inactive
CCc1nc(SCc2ccc(OCC(C)C)cc2)n[nH]1 | inactive
CC1(C)Cc2c(c(-c3ccco3)nc3sc4c(NCCN5CCOCC5)ncnc4c23)CO1 | active: 39.8 µM
COc1ccccc1NC(=O)CSc1nnc(Cc2cccn2C)n1-c1ccc(F)cc1 | inconclusive [inhibitor, partial curve]
COc1ccc(CCN2C(=O)CN(C3CCCCCC3)C(=O)C2c2ccc(Cl)cc2)cc1OC (stereo not drawn) | inactive
O=C1CC(N2CCSCC2)C(=O)N1c1cccc(Cl)c1 (stereo not drawn) | active: 28.2 µM
CSC1=C(C#N)C(=O)NC(c2ccc(Cl)cc2)S1 (stereo not drawn) | active: 10 µM
C/C(CC(=O)NC1CCCCC1)=N\NC(=O)c1ccccc1C | inconclusive [inhibitor, partial curve]
